According to patent US20260226493A1, “HERBICIDE RESISTANT PLANTS” (SYNGENTA CROP PROTECTION AG, priority 2023, published 2026):
This continues a long series; more values of the same kind are listed elsewhere.

Test system: Arabidopsis thaliana BIO3-BIO1 (BioDA) mutants
Experiment: BIO3-BIO1 mutant enzyme activity in the presence of herbicide, percentage inhibition (fluorometric DAPA assay)
Type: biochemical
Text: A pet-24 plasmid containing a DNA sequence encoding each identified variant mutant of BIO3-BIO1 derived from Arabidopsis thaliana from example 5 above, as shown in Table 13 below and as shown in full in SEQ ID NOs: 15 to 155, codon-optimised for expression in E. coli, with an N-terminal 6×His-tag and thrombin cleavage site and under control of a T7 promoter, and was synthesised by Twist Bioscience, in a similar manner to SEQ ID NO:311. These plasmids were then expressed in E. coli BL21 (DE3) bioA with 50 μg/mL kanamycin and 25 μg/mL chloramphenicol selection. Overnight cultures grown at 37° C. were used to inoculate 8×500 mL AIM in shake flasks at a ratio of 1:100. Cultures were grown at 37° C., 200 rpm for 3.5 hours and then overnight at 20° C. Cells were harvested by centrifugation for 30 minutes at 10 000 g. Cells were stored at −80° C. until extraction. 30 g of cell pellet from was thawed in 120 mL of IMAC buffer A (20 mM HEPES pH7.5, 25 mM imidazole, 500 mM sodium chloride, 0.15 mM pyridoxal phosphate, 0.5 mM TCEP, 1× complete Protease Inhibitor Tablet (Roche)). The resuspension was passed through a cell disrupter at 18 000 PSI and centrifuged at 50 000 g for 25 minutes at 4° C. The His-tagged BIO3-BIO1 protein was purified from the extract supernatant on an AKTA avant chromatography system (Cytiva) using a HisTrap FF column and eluted in IMAC buffer B ((20 mM HEPES pH7.5, 500 mM imidazole, 500 mM sodium chloride, 0.15 mM pyridoxal phosphate, 0.5 mM TCEP) followed by SEC using a HiLoad 26/60 Superdex200 column in SEC buffer (25 mM HEPES pH7.5, 150 mM sodium chloride, 0.15 mM pyridoxal phosphate, 0.5 mM TCEP). Protein concentration was measured and calculated using the absorbance at 280 nm. Extracts were diluted 1 in 4 and 10 uL was analysed by SDS PAGE.
To measure BIO3-BIO1 mutant enzyme activity in the presence of herbicide, herbicides were incubated with 20 μL of enzyme mix (100 mM EPPS pH 8.6, 0.1 mM pyridoxal phosphate, 0.1 mg/mL BSA, 50 nM BIO3-BIO1 enzyme) for 10 minutes at 20° C. in a well of a 96-well half-area black plate, followed by the addition of 20 μL of substrate mix (final concentration of 100 mM EPPS pH 8.6, 0.1 mM pyridoxal phosphate, 0.1 mg/mL BSA, 100 μM spermidine, 20 μM KAPA, 100 mM NaCO3) and further incubation for 75 minutes at 20° C. The reaction was terminated by the addition of 50 μL of derivatisation mix (final concentration of 250 mM borate NaOH pH 9.4, 3.6 mM o-phthalaldehyde, 7 mM β-mercaptoethanol, 17% (v/v) ethanol, 3.6% (v/v) methanol). The fluorescent product produced by the reaction of DAPA with o-phthalaldehyde and 7 mM β-mercaptoethanol was measured at 470 nm after excitation at 410 nm. The percentage inhibition was calculated as the activity in the presence of one of three concentrations of each herbicide compound A to M (note that the compounds labelled as A to M are identified hereinabove in the relevant section of the description) as a percentage of the activity in DMSO (Table 12 and 13). The percentage activity versus WT was also calculated and is shown in Table 13 and 14 (NT indicates mutation not tested in table 13, note that these mutations are tested at different compound concentrations for compounds L, M and C, and the results are shown in table 14).

CCn1c(Cn2ccc(C(F)(F)F)n2)cc(=O)c(C(=O)O)c1-c1ccc(Cl)c(Cl)c1 [Compound L, 2-(3,4-dichlorophenyl)-1-ethyl-4-oxo-6-[[3-(trifluoromethyl)pyrazol-1-yl]methyl]pyridine-3-carboxylic acid] was tested, and the percentage inhibition (variant Q517H, 0.075 μM) was 4%, the percentage inhibition (variant Q517H, 0.5 μM) was 51% and the percentage inhibition (variant Q517I, 0.01 μM) was 14%. It also gave a percentage inhibition (variant Q517I, 0.075 μM) of 35%, a percentage inhibition (variant Q517I, 0.5 μM) of 65% and a percentage inhibition (variant Q517T, 0.01 μM) of 9%. For the same compound, the percentage inhibition (variant Q517T, 0.075 μM) was 50%, the percentage inhibition (variant Q517T, 0.5 μM) was 76% and the percentage inhibition (variant Q517W, 0.01 μM) was 14%. The percentage inhibition (variant Q517W, 0.075 μM) was 32%, the percentage inhibition (variant Q517W, 0.5 μM) was 65% and the percentage inhibition (variant Q517Y, 0.01 μM) was 8%. For the same compound, the percentage inhibition (variant Q517Y, 0.075 μM) was 38%, the percentage inhibition (variant Q517Y, 0.5 μM) was 74% and the percentage inhibition (variant R756K, 0.01 μM) was 6%. For the same compound, the percentage inhibition (variant R756K, 0.075 μM) was 30%, the percentage inhibition (variant R756K, 0.5 μM) was 64% and the percentage inhibition (variant R756S, 0.01 μM) was 10%. The percentage inhibition (variant R756S, 0.075 μM) was 49%, the percentage inhibition (variant R756S, 0.5 μM) was 82% and the percentage inhibition (variant R790C, 0.01 μM) was 0%. It also gave a percentage inhibition (variant R790C, 0.075 μM) of 4%, a percentage inhibition (variant R790C, 0.5 μM) of 55% and a percentage inhibition (variant R797Q, 0.01 μM) of 5%. The percentage inhibition (variant R797Q, 0.075 μM) was 10%, the percentage inhibition (variant R797Q, 0.5 μM) was 26% and the percentage inhibition (variant S390C, 0.01 μM) was 1%. The percentage inhibition (variant S390C, 0.075 μM) was 45%, the percentage inhibition (variant S390C, 0.5 μM) was 82% and the percentage inhibition (variant S509A, 0.01 μM) was 0%. It also gave a percentage inhibition (variant S509A, 0.075 μM) of 0%, a percentage inhibition (variant S509A, 0.5 μM) of 20% and a percentage inhibition (variant S509C, 0.01 μM) of 12%. The percentage inhibition (variant S509C, 0.075 μM) was 41%, the percentage inhibition (variant S509C, 0.5 μM) was 62% and the percentage inhibition (variant S509D, 0.01 μM) was 14%. It also gave a percentage inhibition (variant S509D, 0.075 μM) of 14%, a percentage inhibition (variant S509D, 0.5 μM) of 63% and a percentage inhibition (variant S509E, 0.01 μM) of 0%. It also gave a percentage inhibition (variant S509E, 0.075 μM) of 22%, a percentage inhibition (variant S509E, 0.5 μM) of 41% and a percentage inhibition (variant S509F, 0.01 μM) of 3%. The percentage inhibition (variant S509F, 0.075 μM) was 0%, the percentage inhibition (variant S509F, 0.5 μM) was 18% and the percentage inhibition (variant S509G, 0.01 μM) was 30%. It also gave a percentage inhibition (variant S509G, 0.075 μM) of 69%, a percentage inhibition (variant S509G, 0.5 μM) of 84% and a percentage inhibition (variant S509H, 0.01 μM) of 0%. It also gave a percentage inhibition (variant S509H, 0.075 μM) of 4%, a percentage inhibition (variant S509H, 0.5 μM) of 31% and a percentage inhibition (variant S509I, 0.01 μM) of 3%. The percentage inhibition (variant S509I, 0.075 μM) was 2%, the percentage inhibition (variant S509I, 0.5 μM) was 22% and the percentage inhibition (variant S509K, 0.01 μM) was 0%. The percentage inhibition (variant S509K, 0.075 μM) was 26%, the percentage inhibition (variant S509K, 0.5 μM) was 42% and the percentage inhibition (variant S509L, 0.01 μM) was 0%. The percentage inhibition (variant S509L, 0.075 μM) was 3%, the percentage inhibition (variant S509L, 0.5 μM) was 31% and the percentage inhibition (variant S509N, 0.01 μM) was 3%. The percentage inhibition (variant S509N, 0.075 μM) was 5%, the percentage inhibition (variant S509N, 0.5 μM) was 65% and the percentage inhibition (variant S509Q, 0.01 μM) was 0%. It also gave a percentage inhibition (variant S509Q, 0.075 μM) of 11%, a percentage inhibition (variant S509Q, 0.5 μM) of 41% and a percentage inhibition (variant S509R, 0.01 μM) of 0%. For the same compound, the percentage inhibition (variant S509R, 0.075 μM) was 20%, the percentage inhibition (variant S509R, 0.5 μM) was 61% and the percentage inhibition (variant S509T, 0.01 μM) was 3%. For the same compound, the percentage inhibition (variant S509T, 0.075 μM) was 58%, the percentage inhibition (variant S509T, 0.5 μM) was 91% and the percentage inhibition (variant S509V, 0.01 μM) was 12%. For the same compound, the percentage inhibition (variant S509V, 0.075 μM) was 10%, the percentage inhibition (variant S509V, 0.5 μM) was 11% and the percentage inhibition (variant S509W, 0.01 μM) was 0%. The percentage inhibition (variant S509W, 0.075 μM) was 0%, the percentage inhibition (variant S509W, 0.5 μM) was 0% and the percentage inhibition (variant S509Y, 0.01 μM) was 3%. For the same compound, the percentage inhibition (variant S509Y, 0.075 μM) was 0%, the percentage inhibition (variant S509Y, 0.5 μM) was 19% and the percentage inhibition (variant S704H, 0.01 μM) was 0%. For the same compound, the percentage inhibition (variant S704H, 0.075 μM) was 0%, the percentage inhibition (variant S704H, 0.5 μM) was 0% and the percentage inhibition (variant S704P, 0.01 μM) was 0%. It also gave a percentage inhibition (variant S704P, 0.075 μM) of 0% and a percentage inhibition (variant S704P, 0.5 μM) of 42%.
